These results are taken from patent US20210378240A1, “OXETANYLPHENOXYQUINOLINES AND ANALOGUES” (Bayer Aktiengesellschaft, priority 2018, published 2021).

How the values of the data set were obtained:
In table 1, the logP values were determined in accordance with EEC Directive 79/831 Annex V.A8 by HPLC (High Performance Liquid Chromatography) on a reversed-phase column (C 18), using the method to described below:
temperature: 40° C.; mobile phases: 0.1% aqueous formic acid and acetonitrile; linear gradient from 10% acetonitrile to 95% acetonitrile;
If more than one LogP value is available within the same method, all the values are given and separated by “;”.
Calibration was carried out using unbranched alkan-2-ones (comprising 3 to 16 carbon atoms) with known logP values (determination of the logP values by the retention times using linear interpolation between two successive alkanones). lambda-max-values were determined using UV-spectra from 200 nm to 400 nm and the peak values of the chromatographic signals.

Compound `Cc1nc2c(F)c(F)ccc2cc1Nc1cccc(F)c1N1CCC12COC2` [I.18] registered a logP of 4.02.
As for `CC1(c2ccccc2Cc2cnc3c(F)c(F)ccc3c2)COC1` [I.06], the figure is 3.17; as for `CC1(c2ccccc2Cc2cnc3c(C(F)(F)F)cccc3c2)COC1` [I.07], 3.86.
As to `Cc1nc2c(F)c(F)ccc2cc1Oc1cccc(F)c1S(=O)(=O)C1COC1` [I.17], the log partition coefficient (logP) came out at 2.59.
As for `Cc1nc2c(F)c(F)ccc2cc1Oc1cccc(F)c1[S+]([O-])C1COC1` (stereo not drawn) [I.16], the figure is 2.25.
Turning to `Clc1cccc(Cl)c1SC1COC1` [IX_A], the logP amounted to 3.10.
`Cc1nc2c(F)c(F)ccc2cc1Oc1cccc(F)c1C#CC1COC1` [I.12] showed a log partition coefficient (logP) of 3.68.
Consider `Cc1nc2c(F)c(F)ccc2cc1Oc1cccc(F)c1CN1CC(F)(F)C1` [I.08], for which the logP was determined as 2.86.
As for `CC1(c2ccccc2Cc2cc3ccccc3nc2O)COC1` [I.05], the logP amounted to 2.50.
As for `Cc1nc2c(F)c(F)ccc2nc1Nc1cccc(F)c1CN1CC(F)(F)C1` [I.11], the figure is 4.64.
Turning to `Cc1nc2c(F)c(F)ccc2cc1Nc1cccc(F)c1C#CC1COC1` [I.13], the logP was found to be 3.69.
As for `Cc1nc2c(F)c(F)ccc2cc1Oc1cccc(F)c1CN1CC(O)C1` [I.09], the figure is 1.44.
In turn, `[O-][S+](c1c(Cl)cccc1Cl)C1COC1` (stereo not drawn) [IX_B] showed a logP of 1.45.
As for `O=Cc1c(Br)cccc1Nc1cnc2c(F)cccc2c1` [IV.06], the figure is 3.70.
As for `O=S(=O)(c1c(Cl)cccc1Cl)C1COC1` [IX_D], the figure is 1.71.
